In PubChem BioAssay (NCI):
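Compound exposure: 48 hours, 5 concentrations, 96-well plates. The concentration for 50% growth inhibition is given as GI50. TGI is the concentration that stops growth completely.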

System: NCI-H322M lung
Test: DTP human tumour cell line panel, 48 h

SMILES | GI50 | TGI
CN1CCN(Cc2ccc(NC(=O)c3cncc(C#Cc4cnc5ccc(O[C@@H]6CCOC6)nn45)c3)cc2C(F)(F)F)CC1 | 214 nM | 915 nM
NC(=O)c1c(NC(=O)c2ccc(C(F)(F)F)cc2)sc2c1CCC(=O)C2 | 7970 nM | > 78400 nM
